Reference: patent US20250144230A1, “LINKERS FOR USE IN ANTIBODY DRUG CONJUGATES” (Orum Therapeutics, Inc., priority 2021, published 2025)

Columns and labels:
[1] = target: T1, BRD4 (Homo sapiens, UniProt O60885); assay: In vitro BRD4 protein degradation assay (Western blot); assay type: cell-based; conditions: MV4-11 cells, overnight
T1 construct: endogenous in cells; host or cells: MV4-11
Experimental: The ability of the claimed conjugates to degrade BRD4 was measured using an in vitro degradation assay. MV4-11 cells were incubated with test article overnight. Protein was loaded to 4-12% NuPAGE Bis-Tris gel. Western blot with rabbit anti-BRD4 Ab (Cell Signaling #13440) was performed at 1:1,000 dilution and re-blotting with β-actin HRP (Cell Signaling #5125) was performed at 1:1,000. The degradation activity of the gemtuzumab conjugate Compound (XL) and the unconjuaged BRD4 degrader small molecule Compound 40-3 are shown in FIG. 14.

[2] = system: MV-4-11 cells; assay: In vitro MV-4-11 antiproliferation assay (alamarBlue); assay type: cell-based, human; conditions: 4 days
Experimental: MV-4-11 cells were exposed to varying concentrations of conjugates or antibodies for 4 days with/without 1 μM of the blocking antibody Gemtuzumab or Trastuzumab. Viability of the cells was determined by alamarBlue. The antiproliferative activity of the gemtuzumab conjugate of Compound (XL) and the unconjuaged BRD4 degrader small molecule Compound 40-3 are showin in FIG. 13. […] The antibodies alone were not active up to […].

B1: gemtuzumab conjugate of Compound (XL) (conjugate, chains of the INN, looked up)
heavy: EVQLVQSGAEVKKPGSSVKVSCKASGYTITDSNIHWVRQAPGQSLEWIGYIYPYNGGTDYNQKFKNRATLTVDNPTNTAYMELSSLRSEDTAFYYCVNGNPWLAYWGQGTLVTVSSASTKGPSVFPLAPCSRSTSESTAALGCLVKDYFPEPVTVSWNSGALTSGVHTFPAVLQSSGLYSLSSVVTVPSSSLGTKTYTCNVDHKPSNTKVDKRV[no letters for human IgG4 Fc with S228P (EU numbers)]
light: DIQLTQSPSTLSASVGDRVTITCRASESLDNYGIRFLTWFQQKPGKAPKLLMYAASNQGSGVPSRFSGSGSGTEFTLTISSLQPDDFATYYCQQTKEVPWSFGQGTKVEVKRTVAAPSVFIFPPSDEQLKSGTASVVCLLNNFYPREAKVQWKVDNALQSGNSQESVTEQDSKDSTYSLSSTLTLSKADYEKHKVYACEVTHQGLSSPVTKSFNRGEC
modifications: conjugated to Compound (XL)
- reduction in BRD4 protein band intensity ([1]; 10 nM): > 70%
- concentration dependence of BRD4 depletion [1]: dependent on conjugate concentration
- antiproliferative activity against MV-4-11 cells (in words) ([2]; test article alone): highly active
- loss of activity when CD33 surface antigens were presaturated with gemtuzumab (times less active) ([2]; with 1 μM blocking antibody Gemtuzumab): ~1000
- effect of preblocking with trastuzumab on conjugate activity ([2]; with 1 μM blocking antibody Trastuzumab (no HER2 expression in MV-4-11)): no effect on conjugate activity
